Laboratory results published in the supplement of paper PMC4967469.
A lower IC50 marks a more sensitive line; a fit beyond the top or the lowest dose is shown as a bound at that dose. For AUC the same curve is integrated over the 256-fold range of doses and scaled to a fraction; values near 1 show little effect. The top dose, if marked as inferred, was calculated from the reported fits. For some assays here: An entry number marks a drug with two screens in the source, which often give different values.

Assays:
Assay in all cases: Viability of human cancer cell lines after 72 h of drug (GDSC screen)
Shikonin = compound: CC(C)=CC[C@@H](O)C1=CC(=O)c2c(O)ccc(O)c2C1=O [Shikonin]; details: top dose 16 µM; top dose inferred
Procedure: (§1)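 Human cancer cell lines in 384-well plates, medium with 10% serum, drug for 72 h over a 256-fold dose range (nine 2-fold or five 4-fold steps up to the top dose). Adherent lines were fixed and stained with the nucleic acid dye Syto60, suspension lines read with resazurin; signal relative to control wells, capped at 0 and 100%. One two-parameter sigmoid per drug and line, fitted in a mixed model over all curves with the slope shared within a line.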

Olaparib = compound: O=C(c1cc(Cc2n[nH]c(=O)c3ccccc23)ccc1F)N1CCN(C(=O)C2CC2)CC1 [Olaparib]
Procedure: as §1

BIRB 0796 = compound: Cc1ccc(-n2nc(C(C)(C)C)cc2NC(=O)Nc2ccc(OCCN3CCOCC3)c3ccccc23)cc1 [BIRB 0796]; details: top dose 10 µM; top dose inferred
Procedure: as §1

HG-5-113-01 = compound: CNC(=O)c1ccc(Nc2cc(Nc3ccccc3S(=O)(=O)C(C)C)c3cc[nH]c3n2)nc1 [HG-5-113-01]; details: top dose 10 µM; top dose inferred
Procedure: as §1

BMS-536924 = compound: Cc1cc(N2CCOCC2)cc2[nH]c(-c3c(NC[C@@H](O)c4cccc(Cl)c4)cc[nH]c3=O)nc12 [BMS-536924]
Procedure: as §1

VX-702 = compound: NC(=O)c1ccc(N(C(N)=O)c2c(F)cccc2F)nc1-c1ccc(F)cc1F [VX-702]; details: top dose 2 µM; top dose inferred
Procedure: as §1

CGP-082996 (CINK4) = compound: CCNc1cc(NC2CCC(O)CC2)nc(Nc2ccc3c(ccn3Cc3ccccc3)c2)n1 [CGP-082996 (CINK4)]; details: top dose 5.12 µM; top dose inferred
Procedure: as §1

SB-525334 = compound: Cc1cccc(-c2[nH]c(C(C)(C)C)nc2-c2ccc3nccnc3c2)n1 [SB-525334]; details: top dose 20 µM; top dose inferred
Procedure: as §1

Wee1 inhibitor 681640 = compound: O=C1NC(=O)c2c1c(-c1ccccc1Cl)cc1[nH]c3ccc(O)cc3c21 [Wee1 inhibitor 681640]; details: top dose 2 µM; top dose inferred
Procedure: as §1

A-770041 = compound: COc1cc(-c2nn([C@H]3CC[C@H](N4CCN(C(C)=O)CC4)CC3)c3ncnc(N)c23)ccc1NC(=O)c1cc2ccccc2n1C [A-770041]; details: top dose 5.12 µM; top dose inferred
Procedure: as §1

XMD8-85 = compound: COc1cc(N2CCN(C)CC2)ccc1Nc1ncc2c(n1)N(C)c1ccccc1C(=O)N2C [XMD8-85]; details: top dose 8 µM; top dose inferred
Procedure: as §1

[1] = top dose 5 µM, screen: GDSC drug entry 1017, top dose inferred
[2] = top dose 10 µM, screen: GDSC drug entry 1495
[3] = top dose 4 µM, screen: GDSC drug entry 1091, top dose inferred
[4] = top dose 5.12 µM, screen: GDSC drug entry 62

Q: Which AUC (Shikonin) does the source give for “IA-LM (large cell lung carcinoma, adherent)” here?
A: 0.621

Q: And the IC50 (Shikonin)?
A: 2.25 µM

Q: And the AUC (Olaparib; [1])?
A: 0.984

Q: And the IC50 (Olaparib; [1])?
A: > 5 µM

Q: What about the AUC (Olaparib; [2]) of the same cell line?
A: 0.956

Q: And the IC50 (Olaparib; [2])?
A: > 10 µM

Q: What about the AUC (BIRB 0796) of the same cell line?
A: 0.984

Q: What about the IC50 (BIRB 0796) of the same cell line?
A: > 10 µM

Q: And the AUC (HG-5-113-01)?
A: 0.795

Q: And the IC50 (HG-5-113-01)?
A: 5.31 µM

Q: What about the AUC (BMS-536924; [3]) of the same cell line?
A: 0.961

Q: What about the IC50 (BMS-536924; [3]) of the same cell line?
A: > 4 µM

Q: And the AUC (BMS-536924; [4])?
A: 0.885

Q: What about the IC50 (BMS-536924; [4]) of the same cell line?
A: > 5.12 µM

Q: What about the AUC (VX-702) of the same cell line?
A: 0.972

Q: What about the IC50 (VX-702) of the same cell line?
A: > 2 µM

Q: And the AUC (CGP-082996 (CINK4))?
A: 0.896

Q: What about the IC50 (CGP-082996 (CINK4)) of the same cell line?
A: > 5.12 µM

Q: What about the AUC (SB-525334) of the same cell line?
A: 0.951

Q: What about the IC50 (SB-525334) of the same cell line?
A: > 20 µM

Q: What about the AUC (Wee1 inhibitor 681640) of the same cell line?
A: 0.98

Q: What about the IC50 (Wee1 inhibitor 681640) of the same cell line?
A: > 2 µM

Q: And the AUC (A-770041)?
A: 0.881

Q: And the IC50 (A-770041)?
A: > 5.12 µM

Q: For “JURL-MK1 (chronic myeloid leukaemia, suspension)”, which AUC (Shikonin) is on record?
A: 0.622

Q: What about the IC50 (Shikonin) of the same cell line?
A: 2.17 µM

Q: And the AUC (Olaparib; [1])?
A: 0.901

Q: What about the IC50 (Olaparib; [1]) of the same cell line?
A: > 5 µM

Q: And the AUC (Olaparib; [2])?
A: 0.961

Q: What about the IC50 (Olaparib; [2]) of the same cell line?
A: > 10 µM

Q: What about the AUC (BIRB 0796) of the same cell line?
A: 0.916

Q: What about the IC50 (BIRB 0796) of the same cell line?
A: > 10 µM

Q: What about the AUC (XMD8-85) of the same cell line?
A: 0.964

Q: And the IC50 (XMD8-85)?
A: > 8 µM

Q: What about the AUC (HG-5-113-01) of the same cell line?
A: 0.747

Q: And the IC50 (HG-5-113-01)?
A: 3.19 µM

Q: And the AUC (BMS-536924; [3])?
A: 0.983

Q: And the IC50 (BMS-536924; [3])?
A: > 4 µM

Q: What about the AUC (VX-702) of the same cell line?
A: 0.886

Q: And the IC50 (VX-702)?
A: > 2 µM

Q: And the AUC (SB-525334)?
A: 0.957

Q: And the IC50 (SB-525334)?
A: > 20 µM

Q: And the AUC (Wee1 inhibitor 681640)?
A: 0.889

Q: And the IC50 (Wee1 inhibitor 681640)?
A: > 2 µM

Q: With KP-N-YS (neuroblastoma, adherent) as the cell line, how does the AUC (Shikonin) read?
A: 0.366

Q: And the IC50 (Shikonin)?
A: 0.404 µM

Q: What about the AUC (XMD8-85) of the same cell line?
A: 0.915

Q: And the IC50 (XMD8-85)?
A: > 8 µM

Q: And the AUC (BMS-536924; [4])?
A: 0.933

Q: And the IC50 (BMS-536924; [4])?
A: > 5.12 µM

Q: And the AUC (CGP-082996 (CINK4))?
A: 0.96

Q: What about the IC50 (CGP-082996 (CINK4)) of the same cell line?
A: > 5.12 µM

Q: What about the AUC (SB-525334) of the same cell line?
A: 0.897

Q: And the IC50 (SB-525334)?
A: > 20 µM

Q: What about the AUC (A-770041) of the same cell line?
A: 0.782

Q: And the IC50 (A-770041)?
A: 2.47 µM

Q: For LXF-289 (lung adenocarcinoma, adherent), which AUC (Shikonin) is on record?
A: 0.641

Q: And the IC50 (Shikonin)?
A: 2.43 µM

Q: And the AUC (Olaparib; [1])?
A: 0.962

Q: And the IC50 (Olaparib; [1])?
A: > 5 µM

Q: And the AUC (Olaparib; [2])?
A: 0.951

Q: And the IC50 (Olaparib; [2])?
A: > 10 µM

Q: And the AUC (BIRB 0796)?
A: 0.838

Q: And the IC50 (BIRB 0796)?
A: 6.59 µM

Q: And the AUC (HG-5-113-01)?
A: 0.6

Q: What about the IC50 (HG-5-113-01) of the same cell line?
A: 1.17 µM

Q: What about the AUC (BMS-536924; [3]) of the same cell line?
A: 0.944

Q: What about the IC50 (BMS-536924; [3]) of the same cell line?
A: > 4 µM

Q: What about the AUC (BMS-536924; [4]) of the same cell line?
A: 0.67

Q: And the IC50 (BMS-536924; [4])?
A: 0.946 µM

Q: What about the AUC (VX-702) of the same cell line?
A: 0.967

Q: And the IC50 (VX-702)?
A: > 2 µM

Q: And the AUC (CGP-082996 (CINK4))?
A: 0.849

Q: What about the IC50 (CGP-082996 (CINK4)) of the same cell line?
A: 3.74 µM

Q: What about the AUC (SB-525334) of the same cell line?
A: 0.984

Q: What about the IC50 (SB-525334) of the same cell line?
A: > 20 µM

Q: What about the AUC (Wee1 inhibitor 681640) of the same cell line?
A: 0.965

Q: What about the IC50 (Wee1 inhibitor 681640) of the same cell line?
A: > 2 µM

Q: And the AUC (A-770041)?
A: 0.641

Q: And the IC50 (A-770041)?
A: 0.778 µM

Q: With MFM-223 (breast, adherent) as the cell line, how does the AUC (Shikonin) read?
A: 0.471

Q: And the IC50 (Shikonin)?
A: 0.834 µM

Q: And the AUC (Olaparib; [1])?
A: 0.974

Q: And the IC50 (Olaparib; [1])?
A: > 5 µM

Q: And the AUC (Olaparib; [2])?
A: 0.936

Q: And the IC50 (Olaparib; [2])?
A: > 10 µM

Q: What about the AUC (BIRB 0796) of the same cell line?
A: 0.914

Q: And the IC50 (BIRB 0796)?
A: > 10 µM

Q: What about the AUC (HG-5-113-01) of the same cell line?
A: 0.688

Q: What about the IC50 (HG-5-113-01) of the same cell line?
A: 2.09 µM

Q: What about the AUC (BMS-536924; [3]) of the same cell line?
A: 0.866

Q: What about the IC50 (BMS-536924; [3]) of the same cell line?
A: 3.51 µM

Q: What about the AUC (BMS-536924; [4]) of the same cell line?
A: 0.988

Q: What about the IC50 (BMS-536924; [4]) of the same cell line?
A: > 5.12 µM

Q: And the AUC (VX-702)?
A: 0.989

Q: And the IC50 (VX-702)?
A: > 2 µM

Q: And the AUC (CGP-082996 (CINK4))?
A: 0.987

Q: And the IC50 (CGP-082996 (CINK4))?
A: > 5.12 µM

Q: And the AUC (SB-525334)?
A: 0.938

Q: What about the IC50 (SB-525334) of the same cell line?
A: > 20 µM

Q: And the AUC (Wee1 inhibitor 681640)?
A: 0.987

Q: What about the IC50 (Wee1 inhibitor 681640) of the same cell line?
A: > 2 µM

Q: And the AUC (A-770041)?
A: 0.988

Q: And the IC50 (A-770041)?
A: > 5.12 µM

Q: What does the source list for NB12 (neuroblastoma, adherent)?
A: AUC (Shikonin): 0.447; IC50 (Shikonin): 0.682 µM; AUC (Olaparib; [1]): 0.958; IC50 (Olaparib; [1]): > 5 µM; AUC (Olaparib; [2]): 0.942; IC50 (Olaparib; [2]): > 10 µM; AUC (BIRB 0796): 0.967; IC50 (BIRB 0796): > 10 µM; AUC (XMD8-85): 0.912; IC50 (XMD8-85): > 8 µM; AUC (BMS-536924; [3]): 0.844; IC50 (BMS-536924; [3]): > 4 µM; AUC (VX-702): 0.978; IC50 (VX-702): > 2 µM; AUC (SB-525334): 0.904; IC50 (SB-525334): > 20 µM; AUC (Wee1 inhibitor 681640): 0.953; IC50 (Wee1 inhibitor 681640): > 2 µM
